Results taken from patent publication EP4628104A1, “ANTI-CLDN18.2 ANTIBODY-DRUG CONJUGATE, AND PHARMACEUTICAL COMPOSITION THEREOF AND USE THEREOF” (priority 2022, dated 2024).

System: CLDN18.2 highly-expressing BxPC-3 human pancreatic cancer
Assay: Pharmacodynamic evaluation in mouse xenograft tumor model of BxPC-3 human pancreatic cancer
Assay type: in vivo, CB-17 SCID mice
Details: BxPC-3 xenograft
Procedure: CLDN18.2 highly-expressing BxPC-3 human pancreatic cancer tumor blocks were subcutaneously inoculated by block implantation into the right axilla of SPF-grade female CB-17 SCID mice (source: Shanghai Slac Laboratory Animal Co., Ltd.). When the mean tumor volume reached about 200 mm^3, the animals were divided into 3 groups of 4 animals each, with the specific groups and doses shown in Table 9. Both hz28G3-1.3-DDDXd and 15F9-DDDXd were prepared in Example 3. After the determination of the DAR value according to Example 4, the DAR value of hz28G3-1.3-DDDXd was 7.4, and the DAR value of 15F9-DDDXd was 7.7. Table 9. Groups and doses
The day of grouping was day 0, and the tail vein administration was performed once on the day of grouping. The tumor volume was measured 2-3 times a week, and meanwhile, the mice were weighed and the data were recorded. The general behavior of the mice was observed and recorded every day. After the experiment was completed, the tumors were removed, weighed, and photographed.
The detection indexes and the calculation formulas are as follows: • Tumor volume TV (mm^3) = 1/2 × (a × b^2), where a represents the long diameter of the tumor, and b represents the short diameter of the tumor; • Relative tumor volume RTV = TVt/TV0, where TV0 represents the tumor volume on day 0, and TVt represents the tumor volume at each measurement; • Relative tumor proliferation rate T/C (%) = (TRTV/CRTV) × 100%, where TRTV represents RTV of the treatment group, and CRTV represents RTV of the vehicle control group; • Tumor growth inhibition rate TGI (%) = (1 - TW/TW0) × 100%; where TW represents the tumor weight of the treatment group, and TWo represents the tumor weight of the vehicle control group; • Weight change rate WCR (%) = (Wtt - Wt0)/Wt0 × 100%, wherein Wto is the body weight of the animal on day 0, and Wtt is the body weight of the animal at each measurement.

[1] = 5 mg/kg tail vein once on day 0, day 21

B1: hz28G3-1.3-DDDXd: anti-CLDN18.2 antibody hz28G3-1.3 conjugated with compound H (MC-GGFG-DDDXd); DAR 7.4 (Example 3), 7.6 (Example 5), 7.93 (Example 16) (conjugate)
heavy: QVQLVQSGAEVKKPGASVKVSCKTSGYSFTDYLMLWVRQAHGQSLEWMGNINPYYGRTTYALKFKGRVTMTVDRSTSTVYMELSSLRSEDTAVYYCARDGYSLRNAMDYWGQGTLVTVSS[human IgG1 constant region left out here]
light: DIVMTQSPDSLAVSLGERATINCKSSQSLFNSGNQKNYLAWYQQKPGQPPKLLIYGASTRESGVPDRFSGSGSGTDFTLTISSLQAEDVAVYYCQNAHSYPYTFGQGTKVEIKRTVAAPSVFIFPPSDEQLKSGTASVVCLLNNFYPREAKVQWKVDNALQSGNSQESVTEQDSKDSTYSLSSTLTLSKADYEKHKVYACEVTHQGLSSPVTKSFNRGEC
B1 was tested, and the toxicity (5 mg/kg) was “no significant toxicity”, the “RTV (mean±SD)” value [1] was 2.7±1.1 and the “TV (mean±SD)” value [1] was 694±572 mm3. For the same molecule, the “Weight change rate (mean ± SD)” value [1] was 4.8±5.2%, the TGI (5 mg/kg tail vein once on day 0, day 21, from tumor weight) was 69.7% and the T/C (5 mg/kg tail vein once on day 0, day 21, relative tumor proliferation rate) was 33.8%.
